From the supplement of paper PMC9151546
Repeats are few or missing, and single values can be far off.

Legend:
CHO-K1 [1] = test: relative survival (nuclei to bead ratio vs DMSO control) (% of vehicle control); higher = more surviving cells
Description: (§1)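 Flow-cytometric in vitro micronucleus assay (Litron MicroFlow) in CHO-K1 cells in 96-well plates, 19 concentrations (4.5-200 µM, n=1 per concentration). Without S9, cells were exposed for 24 h and sampled at 48 h. With Aroclor 1254-induced rat liver S9, cells were exposed for 3-4 h and sampled at 27-28 h. Read-outs are %MN and %hypodiploid nuclei relative to nucleated events, and relative survival as the nuclei-to-bead ratio versus the 1% DMSO vehicle control (x100).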

CHO-K1 [2] = test: micronucleus frequency (% of nucleated events); higher = more micronuclei (genotoxic)
CHO-K1 [3] = test: hypodiploid nuclei frequency (% of nucleated events); higher = more hypodiploid events (aneugenic)
Description: as §1
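For hypodiploid nuclei frequency (% of nucleated events) in this document: hypodiploid nuclei gated on a flow cytometer with 488 nm excitation after SYTOX Green staining, cultures at 37 °C, positive controls vinblastine without S9 and cyclophosphamide with S9.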
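For micronucleus frequency (% of nucleated events) in this document: cells lysed with nuclei stained by SYTOX Green, then micronucleus-gated events counted against nucleated events by flow cytometry with 488 nm excitation.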
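For relative survival (nuclei to bead ratio vs DMSO control) in this document: Lysed-cell nuclei stained with SYTOX Green and counted against counting beads by flow cytometry at 488 nm excitation, with vinblastine (no S9) and cyclophosphamide (plus S9) as positive controls.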

ClC1=C(Cl)[C@]2(Cl)[C@@H]3[C@@H]4C[C@@H]([C@H]5O[C@@H]45)[C@@H]3[C@@]1(Cl)C2(Cl)Cl [Dieldrin]
Settings	hypodiploid nuclei frequency, CHO-K1 [3] [%]	micronucleus frequency, CHO-K1 [2] [%]	relative survival, CHO-K1 [1]
concentration: 4.53 (µM), S9 metabolic activation: with S9, exposure time: 3-4 hours	0.4	1.96	81.9
concentration: 4.53 (µM), S9 metabolic activation: without S9, exposure time: 24 hours	0.64	1.04	119
concentration: 5.66 (µM), S9 metabolic activation: with S9, exposure time: 3-4 hours	0.4	2.06	101
concentration: 5.66 (µM), S9 metabolic activation: without S9, exposure time: 24 hours	0.6	1.02	96.7
concentration: 7.07 (µM), S9 metabolic activation: with S9, exposure time: 3-4 hours	0.3	1.54	84.5
concentration: 7.07 (µM), S9 metabolic activation: without S9, exposure time: 24 hours	0.7	1.72	120
concentration: 8.84 (µM), S9 metabolic activation: with S9, exposure time: 3-4 hours	0.32	1.86	81.9
concentration: 8.84 (µM), S9 metabolic activation: without S9, exposure time: 24 hours	0.7	1.82	98.1
concentration: 11.1 (µM), S9 metabolic activation: with S9, exposure time: 3-4 hours	0.28	1.28	73
concentration: 11.1 (µM), S9 metabolic activation: without S9, exposure time: 24 hours	0.88	1.8	113
concentration: 13.8 (µM), S9 metabolic activation: with S9, exposure time: 3-4 hours	0.24	1.52	84
concentration: 13.8 (µM), S9 metabolic activation: without S9, exposure time: 24 hours	3.1	2.54	101
concentration: 17.3 (µM), S9 metabolic activation: with S9, exposure time: 3-4 hours	0.36	1.72	84
concentration: 17.3 (µM), S9 metabolic activation: without S9, exposure time: 24 hours	0.9	1.84	108
concentration: 21.6 (µM), S9 metabolic activation: with S9, exposure time: 3-4 hours	0.46	2.38	88.4
concentration: 21.6 (µM), S9 metabolic activation: without S9, exposure time: 24 hours	0.94	3.22	104
concentration: 27 (µM), S9 metabolic activation: with S9, exposure time: 3-4 hours	0.26	1.82	105
concentration: 27 (µM), S9 metabolic activation: without S9, exposure time: 24 hours	0.96	1.24	70.4
concentration: 33.7 (µM), S9 metabolic activation: with S9, exposure time: 3-4 hours	0.24	1.96	95.7
concentration: 33.7 (µM), S9 metabolic activation: without S9, exposure time: 24 hours	1.14	1.84	73.9
concentration: 42.2 (µM), S9 metabolic activation: with S9, exposure time: 3-4 hours	0.26	1.66	79.6
concentration: 42.2 (µM), S9 metabolic activation: without S9, exposure time: 24 hours	0.98	1.26	79.2
concentration: 52.7 (µM), S9 metabolic activation: with S9, exposure time: 3-4 hours	0.28	2.16	80.5
concentration: 52.7 (µM), S9 metabolic activation: without S9, exposure time: 24 hours	1.1	2.28	56
concentration: 65.9 (µM), S9 metabolic activation: with S9, exposure time: 3-4 hours	0.34	2.14	86.8
concentration: 65.9 (µM), S9 metabolic activation: without S9, exposure time: 24 hours	1.24	2.46	66.5
concentration: 82.3 (µM), S9 metabolic activation: with S9, exposure time: 3-4 hours	0.34	2.02	75.5
concentration: 82.3 (µM), S9 metabolic activation: without S9, exposure time: 24 hours	1.6	1.86	66.4
concentration: 103 (µM), S9 metabolic activation: with S9, exposure time: 3-4 hours	0.32	2.58	82.3
concentration: 103 (µM), S9 metabolic activation: without S9, exposure time: 24 hours	1.6	2.78	68.1
concentration: 129 (µM), S9 metabolic activation: with S9, exposure time: 3-4 hours	0.28	1.78	88.4
concentration: 129 (µM), S9 metabolic activation: without S9, exposure time: 24 hours	2.7	2.14	62
concentration: 161 (µM), S9 metabolic activation: with S9, exposure time: 3-4 hours	0.28	1.74	114
concentration: 161 (µM), S9 metabolic activation: without S9, exposure time: 24 hours	2.34	3.3	48.4
concentration: 201 (µM), S9 metabolic activation: with S9, exposure time: 3-4 hours	0.2	1.7	107
concentration: 201 (µM), S9 metabolic activation: without S9, exposure time: 24 hours	2.7	3.6	46.9
